Laboratory results reported in PMC4336329 (PLoS ONE, 2015).
The campaign covered roughly 310,000 compounds. About 14,000 (4.5%) showed an effect of 50% or more. The effect is printed as a negative number. The list shows a part of the results.

biological target: human ether-à-go-go-related gene (hERG) potassium channel (human, UniProt Q12809); assay: primary screen, population patch clamp on CHO cells stably expressing hERG
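Note: peak tail current of the secondary pulse compared with the same well before compound.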

human ether-à-go-go-related gene (hERG) potassium channel, sequence (Q12809 whole entry, looked up): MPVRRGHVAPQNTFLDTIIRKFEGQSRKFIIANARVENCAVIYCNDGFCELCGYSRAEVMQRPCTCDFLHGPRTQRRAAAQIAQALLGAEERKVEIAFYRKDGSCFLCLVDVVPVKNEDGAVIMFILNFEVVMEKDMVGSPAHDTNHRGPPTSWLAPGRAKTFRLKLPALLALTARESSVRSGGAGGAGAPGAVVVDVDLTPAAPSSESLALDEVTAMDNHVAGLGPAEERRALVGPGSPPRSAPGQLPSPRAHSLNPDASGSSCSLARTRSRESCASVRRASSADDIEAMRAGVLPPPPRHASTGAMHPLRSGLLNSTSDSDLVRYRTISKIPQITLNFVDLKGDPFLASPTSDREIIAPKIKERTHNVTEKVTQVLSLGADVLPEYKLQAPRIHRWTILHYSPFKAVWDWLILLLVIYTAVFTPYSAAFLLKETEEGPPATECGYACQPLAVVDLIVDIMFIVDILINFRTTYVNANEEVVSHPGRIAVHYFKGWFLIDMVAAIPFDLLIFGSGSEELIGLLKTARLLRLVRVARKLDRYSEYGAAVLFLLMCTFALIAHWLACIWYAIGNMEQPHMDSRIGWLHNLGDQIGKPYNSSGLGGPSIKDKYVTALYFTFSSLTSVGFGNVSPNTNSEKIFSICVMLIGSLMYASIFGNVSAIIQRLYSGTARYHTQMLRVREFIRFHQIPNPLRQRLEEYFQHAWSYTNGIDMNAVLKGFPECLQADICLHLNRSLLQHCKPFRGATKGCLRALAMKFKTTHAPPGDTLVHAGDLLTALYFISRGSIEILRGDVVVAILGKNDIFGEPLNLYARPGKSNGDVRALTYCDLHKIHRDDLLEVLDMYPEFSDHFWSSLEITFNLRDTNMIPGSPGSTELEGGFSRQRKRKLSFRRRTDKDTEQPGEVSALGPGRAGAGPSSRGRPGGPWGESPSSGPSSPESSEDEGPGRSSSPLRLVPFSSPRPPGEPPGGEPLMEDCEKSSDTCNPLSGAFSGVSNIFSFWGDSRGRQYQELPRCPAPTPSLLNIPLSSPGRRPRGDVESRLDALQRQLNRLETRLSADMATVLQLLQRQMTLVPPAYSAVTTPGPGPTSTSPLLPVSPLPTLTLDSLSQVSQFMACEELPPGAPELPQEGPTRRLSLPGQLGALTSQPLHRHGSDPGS

SMILES | hERG current change (%, negative = inhibition) at 10uM
CC(=O)Nc1ccc(NC(=O)CSc2nnc(NC(=O)c3ccco3)s2)cc1 | -5.89%
CCc1nc(Nc2ccc(N3CCN(C(C)=O)CC3)cc2)c2oc3ccccc3c2n1.Cl | -43.7%
Cc1cc(C)n(-c2nnc(C)n2NS(=O)(=O)c2ccc(F)cc2)n1 | 4.61%
COc1ccc(C(=O)Nc2ccc(CN3CCOCC3)cc2)cc1 | -1.82%
Cc1c(NC(=O)COc2cccc(Cl)c2Cl)c(=O)n(-c2ccccc2)n1C | -71.4%
C=CCn1c(COc2ccc(F)cc2)nnc1SCC(=O)Nc1cccc(S(N)(=O)=O)c1 | 3.43%
COc1cc(OC)cc(-c2c(-c3cccs3)c3cc(-c4ccc(OC)nc4)ccc3n2C)c1 | 3.4%
COc1ccc(CNCCC(c2ccc(OC(C)C)cc2)c2ccccc2OC)cc1OC (stereo not drawn) | -71.3%
CCOc1cc(/C=C2\SC(=S)N(Nc3ccccc3)C2=O)ccc1O | 4.85%
O=C(C1CCN(C2CCN(Cc3ccc4c(c3)CCO4)CC2)CC1)N1CCCC1 | -43%
COC(=O)c1ccc(CSc2ccc3nnc(-c4ccccc4)n3n2)o1 | -53.5%
CC(C)CC(=O)N1CCN(Cc2ccc(Cl)cc2)CC1 | -9.67%
COc1ccc(S(=O)(=O)N2CCCN(CC(=O)Nc3ccccc3F)CC2)cc1 | -55.7%
CCCNc1nc(Nc2ccc(C)cc2)nc(N2CCCC2)n1 | -30.6%
CCc1nnc(NC(=O)c2ccc(S(=O)(=O)N3CCCC3)cc2)s1 | 14.7%
COc1ccccc1NC(=S)N1CCNC(=O)C1CC(=O)Nc1cccc(C)c1 (stereo not drawn) | -13.2%
CCCCC(=O)Nc1ccc(C(=O)Nc2cccnc2)cc1 | -7.52%
C=CCN1C(=O)NC(=O)/C(=C/c2cnc(SC)nc2)C1=O | -5.78%
CN1CCN(C(=O)c2ccccc2NC(=O)C(C)(C)C)CC1 | 12.2%
CCN(c1ccc(F)cc1)S(=O)(=O)c1cccc2nsnc12 | 2.4%
CC1(C)CC(C)(c2ccc(O)cc2O)N(c2ccc3ccccc3c2)C(=S)N1 (stereo not drawn) | 7.99%
S=C(Nc1cccnc1)Nc1ccccn1 | 8.48%
CCS(=O)(=O)N1Cc2ccccc2CC1C(=O)Nc1cccc(S(=O)(=O)N(C)C)c1 (stereo not drawn) | 16.2%

SMILES | hERG current change (%, negative = inhibition) at 10uM
COCCNc1cc(C)nc2c(-c3ccccc3OC)c(C)nn12 | 0.113%
COc1cc([N+](=O)[O-])ccc1NC(=O)CN1CCc2cc(OC)c(OC)cc2C1 | -22.1%
O=C(O)c1ccc(C(=O)c2ccc3c(c2)C(=O)N(CC2CCCO2)C3=O)cc1 (stereo not drawn) | 12.5%
C=CCC1NS(=O)(=O)OCC1NC(=O)OCC(Cl)(Cl)Cl (stereo not drawn) | 2.88%
CCn1ncc(C2=NOC(C(=O)NCC(C)C)C2)c1C (stereo not drawn) | 1.39%
O=[N+]([O-])c1ccccc1-n1cnc2ccccc21 | -18.2%
O=C(NC(C(=O)O)c1ccccc1)c1ccccc1 (stereo not drawn) | 12.3%
CCOc1ccc(CNC(=O)C(CC)n2nc(C)n3c(cc4occc43)c2=O)cc1OC (stereo not drawn) | 2.07%
CCO[C@@H]1OC(C(N)=O)=C[C@H](c2cn(C(C)=O)c3ccccc23)[C@H]1CCCO | 6.45%
CCSc1nnc(-c2ccccc2SC)o1 | 1.26%
Cc1ccc(C)c2[nH]c(=O)c(CCNC(=O)C(C)(C)C)cc12 | 8.5%
Cc1nn(Cc2c(F)c(F)c(F)c(F)c2F)c(C)c1NC(=O)c1cccc(COc2ccccc2Cl)c1 | -3.4%
O=C(NN1CCOCC1)c1cc(-c2ccc(Br)cc2)nc2ccccc12 | -30%
O=C(CCN1CCOCC1)NCC1COc2ccccc2O1 (stereo not drawn) | 15.4%
Cc1cccc(C(=O)NCC(=O)N2CCCCCCC2)c1 | 6.78%
O=C(NC1CCCCCC1)c1ccc2nc3cc(Cl)ccc3c(=O)n2c1 | 7.94%
Cn1cnnc1SCC(=O)NC1CCCN(Cc2ccc(Cl)cc2)C1 (stereo not drawn) | -0.412%
CC1(C)Oc2ccc3ccc(=O)oc3c2C(N2CCCCC2)C1O (stereo not drawn) | -3.77%
COc1ccc(NC(=O)Cn2c(CCC(=O)O)ccc2-c2ccccc2)cc1 | 11.5%
CC(C)CC(=O)Nc1ncc([N+](=O)[O-])s1 | 17.9%
O=C(NC(=S)Nc1ccccn1)c1cncc(Br)c1 | -2.34%
Cc1ccc(-c2nnn(CC(=O)N(CC3CCCO3)C(C(=O)NC(C)(C)C)c3ccc(F)cc3)n2)o1 (stereo not drawn) | 15.4%
